Among all 360,000 compounds or so, about 25,000 (6.9%) were called active. Inconclusive means that the source gave no clear call. Such entries were picked first, then a sample of the others. The call rests on the fitted dose curve; in most records, active means well fitted inhibition curve with a large enough effect; inconclusive means small, poorly fitted or top-dose-only effect; inactive means flat fitted curve, though single readings scatter. A potency beside an inconclusive call is a rough fit, not a confirmed value.
molecular target: Luciferin 4-monooxygenase (Photinus pyralis) (UniProt P08659); experiment: qHTS profiling assay for firefly luciferase inhibitor/activator using purifed enzyme and Km concentrations of substrates (counterscreen for miR-21 project); conditions: purified FLuc, luminescence inhibition; series mostly up to 57.5 µM; activity change, negative = inhibition: at the top concentration; further: nearly all actives have a fitted effect of over 55% in size;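 on activity change, negative = inhibition: plate controls were vehicle for no effect and reference inhibitor for full effect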
Chain of UniProt P08659 (P08659 whole entry, looked up): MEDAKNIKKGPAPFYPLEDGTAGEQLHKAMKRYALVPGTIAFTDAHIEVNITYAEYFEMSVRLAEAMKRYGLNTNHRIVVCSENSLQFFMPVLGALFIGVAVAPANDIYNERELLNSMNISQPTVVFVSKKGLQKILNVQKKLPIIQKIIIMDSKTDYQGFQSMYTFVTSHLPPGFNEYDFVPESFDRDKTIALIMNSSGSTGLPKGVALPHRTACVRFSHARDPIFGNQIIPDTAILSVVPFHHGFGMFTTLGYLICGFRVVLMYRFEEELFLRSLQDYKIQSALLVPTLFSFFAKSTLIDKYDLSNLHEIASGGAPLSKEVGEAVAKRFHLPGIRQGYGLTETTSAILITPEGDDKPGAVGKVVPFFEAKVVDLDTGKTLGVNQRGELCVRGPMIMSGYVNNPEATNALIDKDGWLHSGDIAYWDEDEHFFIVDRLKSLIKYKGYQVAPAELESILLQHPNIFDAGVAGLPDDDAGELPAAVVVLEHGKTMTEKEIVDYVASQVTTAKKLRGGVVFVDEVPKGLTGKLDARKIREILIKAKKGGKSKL
Outline: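 Purified P. pyralis luciferase, 10 nM final, with Km-level 10 uM D-luciferin and 10 uM ATP in 50 mM Tris acetate pH 7.5, 10 mM Mg acetate, 0.01% Tween-20, 0.05% BSA; 6-point qHTS titration about 60 µM downward; luminescence read.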
Potency means the concentration at half of the fitted maximal effect; tags describe the fitted curve by direction and shape.

| Structure (SMILES) | Potency | activity change, negative = inhibition |
| --- | --- | --- |
| CC1CCCN(S(=O)(=O)c2ccc(C(=O)Nc3nnc(-c4ccccn4)o3)cc2)C1 (stereo not given) | inconclusive: 26.9 µM [inhibitor, partial curve, poor fit] |  |
| COc1ccc(C)cc1NC(=O)Cn1c(=O)oc2cc(S(=O)(=O)N3CCCCC3)ccc21 |  | inactive: -10.5% |
| Cc1ccc(CC(=O)CCc2ccccc2)cc1 | inconclusive: 37.9 µM [inhibitor, partial curve, poor fit] |  |
| O=C(O)COCC(=O)NCc1nc(-c2ccc(C(F)(F)F)cc2)no1 | inconclusive: 37.9 µM [inhibitor, partial curve, poor fit] |  |
| CCOC(=O)c1ccc(NC(=O)CSc2nc(-c3ccc(OC)cc3)cc(C(F)(F)F)c2C#N)cc1 |  | inactive: 4.56% |
| O=C(O)c1cc(-c2ccc(Cl)s2)[nH]n1 | inconclusive: 37.9 µM [inhibitor, partial curve, poor fit] |  |
| Cc1ccc(C(=O)N=c2sccn2C)cc1S(=O)(=O)N1CCOCC1 | inconclusive: 15.1 µM [inhibitor, partial curve] |  |
| COc1cc(C)c(NC(=O)COc2ccc3c(c2)OCO3)cc1C | inconclusive: 16.9 µM [inhibitor, partial curve] |  |
| CC1Cc2cc(/C(O)=C3/C(=O)C(=O)N(CCCn4ccnc4)C3c3ccco3)ccc2O1 (stereo not given) | active: 15.1 µM |  |
| O=C(Nc1ccc(F)cc1)c1cccc2ccccc12 | inconclusive: 26.9 µM [inhibitor, partial curve, poor fit] |  |
| COc1cccc(CNC(=O)CCCn2nc(C)c3sc4ccccc4c3c2=O)c1 | inconclusive: 19 µM [inhibitor, partial curve, poor fit] |  |
| N#CC(=C1CCCC1)c1nc(-c2ccc(Cl)cc2)cs1 | inconclusive: 2.69 µM [inhibitor, full curve, poor fit] |  |
| NC(=O)c1cc(Cl)ccc1OCC(=O)Nc1ccc2c(c1)OCO2 | active: 0.849 µM |  |
| O=C(O)c1ccc(N/N=C/c2ccc(-c3cccc(Cl)c3)o2)cc1 | active: 2.69 µM |  |
| Cc1ccc(/C=N/NC(=O)CSc2nc3ccccc3o2)cc1 | inconclusive: 37.9 µM [inhibitor, partial curve, poor fit] |  |
| Cc1ccc(NC(=O)c2c(NC(=O)c3ccc(F)cc3)sc3c2CCCC3)cc1C | inconclusive: 13.5 µM [inhibitor, partial curve] |  |
| CCOc1ccc2nc(SCc3ccc(OC)cc3)sc2c1 | active: 13.5 µM |  |
| Cc1nn(-c2ccccc2)c2sc(C(=O)C(C#N)c3ccccn3)cc12 (stereo not given) | inconclusive: 3.38 µM [inhibitor, full curve] |  |
| Cc1sc(NC(=O)C2CCCCC2)c(C#N)c1-c1ccccc1 | active: 6.75 µM |  |
| CC1CCCCC1Nc1nc2ccc(Cl)cc2n2cnnc12 (stereo not given) |  | inactive: -15% |
| Cc1ccccc1NS(=O)(=O)c1ccc2[nH]cc(C(=O)NC3CCCCC3)c(=O)c2c1 | inconclusive: 37.9 µM [inhibitor, partial curve, poor fit] |  |
| CCC1(C)Cc2c(sc3nc(SC)[nH]c(=O)c23)CO1 (stereo not given) | inconclusive: 37.9 µM [inhibitor, partial curve, poor fit] |  |
| COc1ccc(N(CC(=O)Nc2ccc(C(C)C)cc2)S(=O)(=O)c2c(C)noc2C)cc1 |  | inactive: -0.398% |

| Structure (SMILES) | Potency | activity change, negative = inhibition |
| --- | --- | --- |
| Cc1ccc(NC(=O)c2oc3ccc(S(=O)(=O)N4CCCCCC4)cc3c2C)c(C)c1 |  | inactive: -0.0227% |
| COc1ccc(N2CCN(C(=O)c3cc4c(C)nc5ccccc5c4o3)CC2)cc1 |  | inactive: -0.907% |
| CCn1c2ccc(F)cc2c2nc3ccccc3nc21 | inconclusive: 30.1 µM [inhibitor, single point] |  |
| c1ccc(CNc2nc(-c3cccnc3)cs2)cc1 | inconclusive: 21.3 µM [inhibitor, single point] |  |
| CC(=O)N1CCN(c2ccc(NC(=O)c3ccc4c(c3)OCCO4)cc2)CC1 | inconclusive: 23.9 µM [inhibitor, single point] |  |
| Nc1nc(Cl)cc(Nc2ccccc2Cl)n1 | inconclusive: 37.9 µM [inhibitor, partial curve, poor fit] |  |
| O=C(COc1ccccc1[N+](=O)[O-])N/N=C/c1ccc[nH]1 | inconclusive: 19 µM [inhibitor, single point] |  |
| CCn1c(C(=O)Nc2c(C)cccc2C)cc2sc(Cl)cc21 |  | inactive: -17.6% |
| Cc1ccnc(NC(=O)c2ccc([N+](=O)[O-])s2)c1 | active: 13.5 µM |  |
| O=C(N/N=C/c1ccccc1[N+](=O)[O-])c1ccc2c(c1)OCCO2 | active: 0.239 µM |  |
| COc1cccc(-c2nc(SCC(=O)Nc3nc(-c4ccccc4)c(C)s3)[nH]c(=O)c2C#N)c1 | inconclusive: 37.9 µM [inhibitor, partial curve, poor fit] |  |
| CCOc1ccc2nc(NC(=O)c3cccnc3)sc2c1 | active: 1.51 µM |  |
| O=C(Cn1nc(-c2ccccc2)c2c(c1=O)CCCC2)Nc1ccc(F)c(Cl)c1 |  | inactive: -2.96% |
| CCCCCC/C(C)=C1/SC(=S)NC1=O |  | inactive: -6.17% |
| COc1ccc(C(=O)CCS(=O)(=O)c2ccc(C)cc2)cc1 | inconclusive: 26.9 µM [inhibitor, single point] |  |
| COc1ccc(S(=O)(=O)Nc2cc(Sc3ncn[nH]3)c(O)c3ccccc23)cc1 | inconclusive: 6.75 µM [inhibitor, partial curve] |  |
| COc1ccc2oc(-c3ccc(C)c(NC(=O)c4ccc5c(c4)OCCO5)c3)nc2c1 | inconclusive: 10.7 µM [inhibitor, partial curve] |  |
| O=C(NCCc1ccccc1)c1cc2ccccc2oc1=O | inconclusive: 7.57 µM [inhibitor, partial curve] |  |
| Cc1cnc(NC(=O)CCCc2nc3ccccc3s2)s1 | inconclusive: 37.9 µM [inhibitor, partial curve, poor fit] |  |
| CCCNC(=O)COCc1cc(-c2ccc(F)cc2)on1 |  | inactive: -6.94% |
| COc1ccc(CC(=O)NC(=S)Nc2ccc(S(N)(=O)=O)cc2)cc1 |  | inactive: 1.85% |
| COc1cc(/C=C(/C#N)C(=O)Nc2ccccc2)ccc1OCc1ccc(C(=O)O)cc1 | inconclusive: 37.9 µM [inhibitor, single point] |  |
